{"source": "the supplement of paper PMC10126150", "note": "Sequences with one replicate were seen in a single cluster, so their values are uncertain.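 Note: ATP exposure 15 min at 22 °C before imaging.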", "data": [{"tested_on": "ATP", "experiment": "switch fluorescence ratio, 500 uM ATP over buffer (Cy3 cluster intensity, sum of 5 cycles each) (fold (ratio)); higher = stronger signal-on switching upon ATP binding; sequences stand for … in TCGTCGGCAGCGTCAGATGTGTATAAGAGACAGTTTTTTTTTTTTTTTTTTTTTTTTT…TC", "settings": "aptamer strand: ATP DNA aptamer (quencher-CACCTGGGGGAGTATTGCGGAGGAAGG + anchor), 100 nM annealed; ATP concentration: 500 uM; one replicate", "outline": "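The fluorescence ratio divides summed target-cycle Cy3 intensity by summed buffer-cycle Cy3 intensity for each cluster and is averaged per switch-domain sequence. Cy3-labelled switching-strand clusters on a modified Illumina MiSeq flow-cell were annealed to 100 nM quencher-labelled ATP aptamer, then imaged in selection buffer and again after 15 min with 500 uM ATP at 22 °C. Five such cycles were run, with NaOH stripping and re-annealing between them, and clusters outside 100-1000 RFU were excluded.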", "values": [{"sequence": "GTCGGAGTTT", "switch fluorescence ratio": 0.946}, {"sequence": "GTCGGATTTC", "switch fluorescence ratio": 0.994}, {"sequence": "GTCGGCTCCT", "switch fluorescence ratio": 0.981}, {"sequence": "GTCGGGCTAG", "switch fluorescence ratio": 0.985}, {"sequence": "GTCGGGGAGC", "switch fluorescence ratio": 1.01}, {"sequence": "GTCGGTATT", "switch fluorescence ratio": 0.947}, {"sequence": "GTCGTAAGTG", "switch fluorescence ratio": 0.987}, {"sequence": "GTCGTAGGTG", "switch fluorescence ratio": 0.983}, {"sequence": "GTCGTCTGA", "switch fluorescence ratio": 0.987}, {"sequence": "GTCGTGAGGA", "switch fluorescence ratio": 1.01}, {"sequence": "GTCGTGCGGA", "switch fluorescence ratio": 1.07}, {"sequence": "GTCGTGCTGG", "switch fluorescence ratio": 0.988}, {"sequence": "GTCGTTAGTG", "switch fluorescence ratio": 0.978}, {"sequence": "GTCGTTCGTA", "switch fluorescence ratio": 0.996}, {"sequence": "GTCGTTTACA", "switch fluorescence ratio": 1}, {"sequence": "GTCGTTTCGT", "switch fluorescence ratio": 0.921}, {"sequence": "GTCTAACA", "switch fluorescence ratio": 0.962}, {"sequence": "GTCTAATCGG", "switch fluorescence ratio": 1}, {"sequence": "GTCTACGAGA", "switch fluorescence ratio": 1.03}, {"sequence": "GTCTACTCGC", "switch fluorescence ratio": 0.996}, {"sequence": "GTCTATCTCC", "switch fluorescence ratio": 1.1}, {"sequence": "GTCTCGAATC", "switch fluorescence ratio": 1.02}, {"sequence": "GTCTCTAATA", "switch fluorescence ratio": 0.978}, {"sequence": "GTCTCTACGG", "switch fluorescence ratio": 0.979}, {"sequence": "GTCTCTGGGA", "switch fluorescence ratio": 1}, {"sequence": "GTCTGCCCCC", "switch fluorescence ratio": 1.46}, {"sequence": "GTCTGGATGC", "switch fluorescence ratio": 0.983}, {"sequence": "GTCTTAAAGA", "switch fluorescence ratio": 0.993}, {"sequence": "GTCTTAATTC", "switch fluorescence ratio": 1.02}, {"sequence": "GTCTTACACT", "switch fluorescence ratio": 1.03}, {"sequence": "GTCTTAGGG", "switch fluorescence ratio": 0.948}, {"sequence": "GTCTTGATAT", "switch fluorescence ratio": 0.975}, {"sequence": "GTCTTGTGGG", "switch fluorescence ratio": 1.06}, {"sequence": "GTCTTTATTG", "switch fluorescence ratio": 0.988}, {"sequence": "GTCTTTGGA", "switch fluorescence ratio": 0.992}, {"sequence": "GTGAAAACGG", "switch fluorescence ratio": 1.07}, {"sequence": "GTGAACGCAT", "switch fluorescence ratio": 2.65}, {"sequence": "GTGAAGGATG", "switch fluorescence ratio": 1.02}, {"sequence": "GTGAAGGCAA", "switch fluorescence ratio": 1.36}, {"sequence": "GTGAATGCAG", "switch fluorescence ratio": 1.04}, {"sequence": "GTGACACGAG", "switch fluorescence ratio": 1}, {"sequence": "GTGACAGACA", "switch fluorescence ratio": 1.03}, {"sequence": "GTGACCAAGT", "switch fluorescence ratio": 1.01}, {"sequence": "GTGACCCAAG", "switch fluorescence ratio": 1}, {"sequence": "GTGACGCCAG", "switch fluorescence ratio": 0.949}, {"sequence": "GTGACTATCA", "switch fluorescence ratio": 0.994}, {"sequence": "GTGACTGCGG", "switch fluorescence ratio": 0.925}, {"sequence": "GTGACTTAGG", "switch fluorescence ratio": 0.986}, {"sequence": "GTGAGATCTA", "switch fluorescence ratio": 0.991}, {"sequence": "GTGAGATTGG", "switch fluorescence ratio": 1}, {"sequence": "GTGAGCATAC", "switch fluorescence ratio": 4.9}, {"sequence": "GTGAGCGCCA", "switch fluorescence ratio": 0.972}, {"sequence": "GTGAGCGGTA", "switch fluorescence ratio": 1.02}, {"sequence": "GTGAGGAAAC", "switch fluorescence ratio": 1.01}, {"sequence": "GTGAGGAG", "switch fluorescence ratio": 0.918}, {"sequence": "GTGAGGAGGT", "switch fluorescence ratio": 1}, {"sequence": "GTGAGGGCGC", "switch fluorescence ratio": 0.962}, {"sequence": "GTGAGTATTT", "switch fluorescence ratio": 0.979}, {"sequence": "GTGATAATAC", "switch fluorescence ratio": 1.46}, {"sequence": "GTGATACGGC", "switch fluorescence ratio": 1.07}, {"sequence": "GTGATAGTCT", "switch fluorescence ratio": 1.07}, {"sequence": "GTGATATGTT", "switch fluorescence ratio": 1.01}, {"sequence": "GTGATCATAT", "switch fluorescence ratio": 0.991}, {"sequence": "GTGATCTATT", "switch fluorescence ratio": 0.996}, {"sequence": "GTGATGATGA", "switch fluorescence ratio": 0.969}, {"sequence": "GTGATTAGTA", "switch fluorescence ratio": 1}, {"sequence": "GTGATTCGGA", "switch fluorescence ratio": 0.987}, {"sequence": "GTGATTTTAA", "switch fluorescence ratio": 0.972}, {"sequence": "GTGATTTTTA", "switch fluorescence ratio": 0.994}, {"sequence": "GTGCAGCGTT", "switch fluorescence ratio": 1.05}, {"sequence": "GTGCAGGTG", "switch fluorescence ratio": 2.38}, {"sequence": "GTGCATAGGT", "switch fluorescence ratio": 0.973}, {"sequence": "GTGCATGAAC", "switch fluorescence ratio": 1.05}, {"sequence": "GTGCCAAAGG", "switch fluorescence ratio": 1.01}, {"sequence": "GTGCCCTGGA", "switch fluorescence ratio": 1.02}, {"sequence": "GTGCCGGTT", "switch fluorescence ratio": 0.877}, {"sequence": "GTGCCTGGTC", "switch fluorescence ratio": 0.988}, {"sequence": "GTGCCTTACC", "switch fluorescence ratio": 1.02}, {"sequence": "GTGCGACCTC", "switch fluorescence ratio": 1.11}, {"sequence": "GTGCGAGGCT", "switch fluorescence ratio": 0.992}, {"sequence": "GTGCGGGCGT", "switch fluorescence ratio": 1.01}, {"sequence": "GTGCGTATTT", "switch fluorescence ratio": 0.966}, {"sequence": "GTGCGTTGTG", "switch fluorescence ratio": 0.986}, {"sequence": "GTGCTATTGG", "switch fluorescence ratio": 1.03}, {"sequence": "GTGCTCAGA", "switch fluorescence ratio": 0.971}, {"sequence": "GTGCTGCCCT", "switch fluorescence ratio": 1}, {"sequence": "GTGGAAAATC", "switch fluorescence ratio": 1.01}, {"sequence": "GTGGACGATC", "switch fluorescence ratio": 1.02}, {"sequence": "GTGGACGGCC", "switch fluorescence ratio": 1.06}, {"sequence": "GTGGAGCAA", "switch fluorescence ratio": 5.67}, {"sequence": "GTGGAGGGAG", "switch fluorescence ratio": 0.985}, {"sequence": "GTGGAGTAGA", "switch fluorescence ratio": 1.04}, {"sequence": "GTGGATAATA", "switch fluorescence ratio": 0.946}, {"sequence": "GTGGCCACTG", "switch fluorescence ratio": 1.01}, {"sequence": "GTGGCCCCCA", "switch fluorescence ratio": 1.01}, {"sequence": "GTGGCTTCTG", "switch fluorescence ratio": 1}, {"sequence": "GTGGGAACTC", "switch fluorescence ratio": 0.972}, {"sequence": "GTGGGATACG", "switch fluorescence ratio": 1}, {"sequence": "GTGGGCGCAG", "switch fluorescence ratio": 0.974}, {"sequence": "GTGGGGTTAA", "switch fluorescence ratio": 1}]}]}
